Here are results for 121 compounds from PMC9574860, “Chemical Toolkit for PARK7: Potent, Selective, and High-Throughput” (Journal of Medicinal Chemistry, 2022).

Screen size: about 7,900 compounds; about 400 (5.1%) showed an effect of 50% or more. Some of the results follow.

Chain of Parkinson's disease protein 7 (PARK7/DJ1) (Q99497 whole entry, looked up, the tested form may be a part): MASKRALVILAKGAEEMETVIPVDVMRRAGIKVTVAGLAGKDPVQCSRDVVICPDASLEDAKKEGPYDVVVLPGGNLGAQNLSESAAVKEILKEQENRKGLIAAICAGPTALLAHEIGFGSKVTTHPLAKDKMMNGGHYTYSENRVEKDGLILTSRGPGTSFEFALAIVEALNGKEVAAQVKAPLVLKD

The test has as its target Parkinson's disease protein 7 (PARK7/DJ1) (human, UniProt Q99497). The experiment in a line: primary screen, percent inhibition; read as competition with a fluorescent probe by fluorescence polarization; higher = more effect of the substance. The following applies: 100 µM. How it is done:
The screen was conducted using the conditions as described above in 1536-well plates (Corning 3724) with a reaction volume of 8 μL per well. The compound library containing 7887 covalent fragments was purchased at Enamine Ltd. and received as 100 mM DMSO stocks in 384 well LDV Echo plates (Labcyte LP-0200). Stock solutions of 0.26 μM PARK7 and 80 nM JYQ-107 were prepared. Using a Labcyte Echo550 acoustic dispenser, 8 nL of the DMSO stock solution of the library compounds was transferred from the source plates into the empty 1536-well screening plates to obtain a 100 μM final compound concentration. Next, PARK7 (6 μL, final concentration 0.2 μM) was dispensed using a Biotek MultiflowFX liquid dispenser and incubated for 2 h, followed by dispensing the probe JYQ-107 (2 μL, final concentration 20 nM). After 2 h incubation, the FP signal was recorded on a BMG Labtech PHERAstar plate reader (λex/em 480/520 nm). The relative loss of FP signal compared with reference controls was used to calculate the remaining enzyme activity.
With `C=CC(=O)N1CCOCC1CC(=O)c1ccco1` (stereo not shown), the Inhibition % worked out at 5.89%. On to `Cc1ccsc1C=CC(=O)N1CCNC(=O)C1`, for which the Inhibition % is on record as 4.4%. Consider `CN(Cc1ccnn1C)C(=O)C=CC(=O)O`, for which the Inhibition % is recorded as 17.1%. The value for `C=CC(=O)N1CCOC(c2nncn2CC)C1` (stereo not shown) was 1.87%; that for `Cc1nc(CN2CCN(C(=O)CCl)CC2)cs1.Cl` was 10.9%; that for `Cn1ccc(Nc2ccc(S(=O)(=O)F)cn2)n1` was 4.77%.

With `CC1CCCN(C2CC(C)OC2=O)C1` (stereo not shown), the Inhibition % worked out at 17%. With `Cc1csc(C(C#N)C(=O)CCl)n1` (stereo not shown), the Inhibition % was found to be 4.74%. To `O=C(O)[C@H]1CCCN1C(=O)C=Cc1cncc(F)c1` belongs 2.07%; to `N#Cc1ncn(Cc2ccc(OCC(F)(F)F)cc2)n1`, 7.91%; to `CC1CCc2c(sc(NC(=O)CCl)c2C#N)C1` (stereo not shown), 29.4%.

For `Cc1cc(C(=O)Cn2cnc(C#N)n2)c(C)n1C1CC1`, the Inhibition % is on record as 17.1%. The value for `O=C(CCl)Nc1cc(Cl)c(Cl)cc1Cl` was 4.48%; that for `Cc1ncsc1CCn1cnc(C(F)(F)F)c1C#N` was 5.84%. For the compound `N#Cc1nc(N[C@@H]2C=C[C@H](CO)C2)ccc1Cl`, the Inhibition % is listed as 7.61%. To `C=CC(=O)N1CC(COC)(c2ccccc2)C1` belongs 11.2%; to `COc1ccc(-c2csc(NC(=O)CCl)n2)c(O)c1`, 6.77%; to `C=CC(=O)NC1CCC(C)(C)CC1C` (stereo not shown), -0.012%. For `C=CC(=O)NCc1c(F)cc(C)cc1F`, the Inhibition % was found to be 5.28%.

As for `CC(C)n1cc(C2NC(=O)C23CCOCC3)cn1` (stereo not shown), the Inhibition % turned out to be 6.3%.

On to `C#CC(=O)Nc1cnn(CC(=O)O)c1`, for which the Inhibition % stood at 25.4%. On to `O=C(NCc1nc(C2CC2)cs1)c1cccnc1S`, for which the Inhibition % is 2.33%. To `N#Cc1ncn(CCC(=O)Nc2cccc(Cl)c2)n1` belongs 3.5%; to `Cc1cc(NC(=O)CCl)n(C2CCS(=O)(=O)C2)n1` (stereo not shown), 32.6%. To `O=C(OCc1ccccc1)N1CCCCC1CS(=O)(=O)F` (stereo not shown) belongs 16%. In the case of `C=CC(=O)N1CCC(NC(=O)C2CCC2)C1` (stereo not shown), the Inhibition % is reported as 8.54%. Regarding `C=CC(=O)NC1(c2ccccc2Cl)CC1`, the Inhibition % was found to be 10.9%. To `Cc1nc(CN(C#N)c2ccc(F)cc2)no1` belongs 9.23%. Take `CCN(C(=O)CCl)C(C)c1ccc(F)cc1` (stereo not shown): the Inhibition % is recorded as 9.9%. To `C=CC(=O)N1CCN(Cc2ccon2)CC1` belongs 4.28%. To `Cc1cc(NC(=O)OC(C)(C)C)cc(B2OC(C)(C)C(C)(C)O2)c1` belongs -0.551%; to `Cn1cnc2ccc(B3OC(C)(C)C(C)(C)O3)cc21`, 5.09%. The value for `O=C(CN1CCSC1=O)Nc1cc(F)ccc1F` was 3.13%.

In the case of `Cc1ccccc1C1CO1` (stereo not shown), the Inhibition % stood at 5.37%. In the case of `CCc1ccc(OC)c(S(=O)(=O)n2ccnc2C)c1`, the Inhibition % was found to be 8.38%.

In the case of `O=C(Oc1cccc(-c2nnco2)c1)N1CCCCC1`, the Inhibition % was found to be 1.92%. Turning to `c1ccc(-c2nnnn2CC2CO2)cc1` (stereo not shown), the Inhibition % is given as -0.446%.

Regarding `O=C(N[C@H]1CC[C@@H](CS(=O)(=O)F)C1)C1CCOCC1` (racemic), the Inhibition % amounted to 77.4%. The value for `CC1OCCC12CN(C(=O)c1ccc(B(O)O)cc1)CCO2` (stereo not shown) was -0.714%; that for `C=CC(=O)N[C@H]1C[C@@H]1C(F)F` was 0.856%.

As to `O=C1CC2(CCN(Cc3ccc(Cl)cc3Cl)CC2)N1`, the Inhibition % is -1.16%. To `C=CC(=O)NC1CCC2SCCSC12` (stereo not shown) belongs 1.43%. The value for `C=CCNC(=O)C(C#N)=Cc1ccccc1OC` was 10.9%; that for `N#CC=C1CCCCC1` was 7.63%; that for `C=CC(=O)N1CCN(c2nc3ccccc3o2)C(C)C1` (stereo not shown) was 8.27%. The value for `CC1(C)OB(c2cccc(N)c2)OC1(C)C` was 12.8%; that for `N#Cc1ccccc1NC(=O)CN1C(=O)CCC1=O` was 8.4%; that for `CN1CCN(C(=O)C(C#N)=Cc2ccc(F)cc2)CC1.Cl` was 20.3%.

Turning to `C=CC(=O)NCC1CCN(c2ccccc2F)C1` (stereo not shown), the Inhibition % is reported as 9.51%. To `C=CC(=O)NC1CCCN(Cc2ccnc(C)n2)C1=O` (stereo not shown) belongs 6.32%; to `C=CC(=O)N1CCC2CSCC2C1` (stereo not shown), 8.64%. Take `C=CC(=O)NC1(c2ccccc2F)CC1`: the Inhibition % came out at 3.52%. The value for `C=CC(=O)NC(c1nnc2ccccn12)C(C)C` (stereo not shown) was 3.07%; that for `Cc1ccn(S(=O)(=O)c2ccc(Cl)cc2Cl)n1` was 2.67%; that for `N#Cc1ncccc1C(F)(F)F` was 7.37%. To `Cc1c(Cl)ccnc1C#N` belongs 8.18%; to `Cc1cc(=O)n2c3ccccc3n(CC3CO3)c2c1C#N` (stereo not shown), 5.28%. The value for `C=CC(=O)N[C@H]1C[C@H](c2ccccc2F)C1` was 10.2%; that for `C=CC(=O)N1CCC(C(=O)N2CCCC2)C1` (stereo not shown) was 0.856%; that for `CC(Cc1c(F)cccc1F)NC(=O)CCl` (stereo not shown) was 7.95%. As for `CC1(C)OB(c2ccc(S(N)(=O)=O)c(C(F)(F)F)c2)OC1(C)C`, the Inhibition % is reported as 5.87%. To `Cc1ccc(C=CC(=O)N2CCOCC2)o1` belongs 11.9%. To `CC(=O)N(c1cccc(C)c1)C1C=CS(=O)(=O)C1` (stereo not shown) belongs 8.51%; to `N#CC(=Cc1ccc(N2CCCCC2)cc1)C(N)=O`, -0.766%; to `O=c1onc(-c2cnccn2)n1Cc1ccc(Cl)s1`, 8.4%. The value for `O=C1CC2(CCCC2)N1` was 4.3%. With `O=C(O)CC1(CS)CC1`, the Inhibition % is given as 80.8%. Consider `CSc1ccc(C(=O)CCl)cc1NC(C)=O`, for which the Inhibition % is recorded as 37.7%.

As for `COc1ccc(OC)c(C=C(C#N)C(N)=O)c1`, the Inhibition % is reported as -2.68%.

With `CCOc1cc(S(=O)(=O)n2ccc(C)n2)ccc1F`, the Inhibition % is listed as 4.42%. The value for `C=CC(=O)NC[C@H]1CC(=O)N(C)[C@@H]1c1c(C)nn(C)c1C` (racemic) was 6.04%; that for `C=CC(=O)Nc1ccc2c(OC)nccc2c1` was 11.8%; that for `O=C(CCl)NCc1ccccc1` was 13%. To `N#Cc1ncccc1N1CCc2ccccc2C1` belongs 26.9%; to `N#Cc1ccc(N2CCOCC3(CCCC3)C2)cn1`, 6.43%; to `C=CC(=O)N1CCC(C(=O)N(C)OC)CC1`, -0.807%. To `COc1ccc(S(=O)(=O)n2cccn2)c(C)c1C` belongs 4.5%. Take `Cn1c(=O)[nH]c2ccc(B3OC(C)(C)C(C)(C)O3)cc21`: the Inhibition % turned out to be 0.0918%. As for `O=C(CCl)COc1ccc(Cl)cc1`, the Inhibition % amounted to 97.8%. The value for `Clc1ccc([C@@H]2CO2)cc1Cl` was 30.1%; that for `Cc1cccc(-n2nnnc2SC2CC(C)OC2=O)c1` (stereo not shown) was 3.51%; that for `Cc1ccc(C)c(C(=O)Cn2cnc(C#N)n2)c1` was -2.83%. With `C=CC(=O)NCCOC1CCCCC1C` (stereo not shown), the Inhibition % was found to be 10%. To `C=CC(=O)NCC1CCC2CC1CO2` (stereo not shown) belongs 4.2%; to `C=CC(=O)NC1(c2ccc(F)cc2F)CCC1`, 0%; to `C#CC(=O)Nc1ccc(NC(C)=O)cc1C(=O)O`, 18.4%. To `CC1CCCN(C(=O)CN2CCCCC2C2OCCO2)C1` (stereo not shown) belongs -4%; to `CCN(C)CC1CCN(S(=O)(=O)C=Cc2ccccc2)C1` (stereo not shown), 3.63%; to `CC(c1cc2ccccc2o1)N(C)C(=O)CCl` (stereo not shown), 96.1%. To `C[C@H]1CN(C2CCOCC2)CCN1c1ccc(S(=O)(=O)F)cn1` belongs 5.99%; to `C=CC(=O)NC1CSC1(C)C` (stereo not shown), 6.84%; to `Cc1occc1-c1nnc(SC2CCOC2=O)n1C` (stereo not shown), 12.4%. Turning to `O=C(CCl)N1CCc2[nH]c3ccccc3c2C1`, the Inhibition % was -3.49%. To `Cc1cc2ncn(C(=O)N3CCOCC3)c2cc1C` belongs 1.73%. As for `Nc1ccc(NC(=O)Oc2ccccc2)cc1`, the Inhibition % worked out at 11.2%.

As to `CC1N(c2cccc(C#N)n2)CCC12CCOCC2` (stereo not shown), the Inhibition % came out at 6.61%. The value for `O=C1SCCN1CCC(=O)N1CCc2ccccc21` was 9.19%; that for `O=C(CCl)Nc1ccc(S(=O)(=O)C(F)F)cc1` was 65.8%. To `Cn1cc(C=CC(=O)N2CCNC(=O)C2)cn1` belongs 4.98%; to `O=C(CN1CCSC1=O)Nc1ccc(Cl)cc1Cl`, 3.69%; to `COc1ccc(N2CCN(C(=O)n3ccnc3)CC2)cc1`, 1.24%. To `O=S(=O)(C=Cc1ccccc1)NCC(F)(F)F` belongs 10.1%; to `Cc1n[nH]c2ccc(B3OC(C)(C)C(C)(C)O3)cc12.Cl`, 7.34%. Regarding `COc1ccccc1C=CC(=O)N1CC(C)C(O)C1` (stereo not shown), the Inhibition % was determined as 7.9%. The value for `CC1CCCCN1C(=O)C=Cc1cn(C)c(=O)n(C)c1=O` (stereo not shown) was 6.42%; that for `Cc1nn(C)c(Cl)c1C=CC(=O)N1CCC(N)C1.Cl` (stereo not shown) was 17.1%; that for `Cc1csc(N2CCN(C3CC(C)OC3=O)CC2)n1` (stereo not shown) was 9.28%. The value for `N#CCc1ccc(OCC2CO2)cc1` (stereo not shown) was 8.66%; that for `CC(C)n1ccnc1C(=O)CCl` was 48.7%; that for `N#Cc1nccnc1N1CCC(=Cc2ccccc2)CC1` was 12.8%.

In the case of `C=CCN(Cc1cccs1)C(=O)CCl`, the Inhibition % is given as 12.2%.

As to `O=C(CCl)Nc1nnc(-c2ccccc2)o1`, the Inhibition % is given as 8.76%. To `Cc1cc(Cl)c(B2OC(C)(C)C(C)(C)O2)cc1C` belongs 17.7%; to `CC1CC(N2CCOC(c3nccs3)C2)C(=O)O1` (stereo not shown), 7.23%; to `N#Cc1nccn1CC1CCC(F)(F)CC1`, 13.8%. As to `CCCOc1ccc(Cl)cc1S(=O)(=O)n1cccn1`, the Inhibition % stood at 5.91%. To `Cn1c(=O)c2c(ncn2CCS(=O)(=O)F)n(C)c1=O` belongs 7.95%; to `c1cc2c(cc1C1CO1)OCCO2` (stereo not shown), 5.75%; to `CC1(C)OB(c2cc(Cn3cccn3)ccc2F)OC1(C)C`, 5.6%. For `C=CC(=O)N1CCOCC1c1noc(C)n1` (stereo not shown), the Inhibition % amounted to 7.75%.

On to `O=C1NC(c2ccc(F)cc2)C12CCC2` (stereo not shown), for which the Inhibition % is recorded as 6.95%.
